The chains are these.
B1: PhoQ; a variant is named by its letters at X, in order, P23837 (parent)
chain: MKKLLRLFFPLSLRVRFLLATAAVVLVLSLAYGMVALIGYSVSFDKTTFRLLRGESNLFYTLAKWENNKLHVELPENIDKQSPTMTLIYDENGQLLWAQRDVPWLMKMIQPDWLKSNGFHEIEADVNDTSLLLSGDHSIQQQLQEVREDDDDAEMTHSVAVNVYPATSRMPKLTIVVVDTIPVELKSSYMVWSWFIYVLSANLLLVIPLLWVAAWWSLRPIEALAKEVRELEEHNRELLNPATTRELTSLVRNLNRLLKSERERYDKYRTTLTDLTHSLKTPLXXLQXXLRSLRSEKMSVSDAEPVMLEQISRISQQIGYYLHRASMRGGTLLSRELHPVAPLLDNLTSALNKVYQRKGVNISLDISPEISFVGEQNDFVEVMGNVLDNACKYCLEFVEISARQTDEHLYIVVEDDGPGIPLSKREVIFDRGQRVDTLRPGQGVGLAVAREITEQYEGKIVAGESMLGGARMEVIFGRQHSAPKDE

The other results are listed elsewhere or left out. Some results are limits rather than exact numbers.

The variants in the assay derive from B1. In words: enrichment ratio after two sorts for PhoP signalling (ratio (wild type AVST 3.29)); higher = more functional. The following applies: with PhoP (E. coli).
For YSYS, the enrichment ratio is not above 0.25.
For VCTS, the enrichment ratio was not above 0.25.
In the case of IQCP it was not above 0.25; in that of ASAK, 1.25; in that of HEKW, not above 0.25.
For LYPW the value was not above 0.25; for ISTQ, not above 0.25.
Consider MKDP, for which the enrichment ratio was not above 0.25.
For THWH the value was 2; for DAKM, not above 0.25; for IYGQ, not above 0.25.
RTAT: the enrichment ratio is not above 0.25.
Take IPER: the enrichment ratio was not above 0.25.
For RANM the value was not above 0.25.
For NPWS, the enrichment ratio was not above 0.25.
As for TPPF, the enrichment ratio was not above 0.25.
For ILWD the value was not above 0.25; for SDGC, not above 0.25.
Consider QAKN, for which the enrichment ratio is not above 0.25.
For the variant SKHC, the enrichment ratio was not above 0.25.
For ESAS the value was not above 0.25.
For AFYG the value was not above 0.25; for MDMC, not above 0.25; for NCMG, not above 0.25.
For NRNI the value was not above 0.25; for NAHF, not above 0.25.
With FLPA, the enrichment ratio is not above 0.25.
As for MCNS, the enrichment ratio was not above 0.25.
Consider VARV, for which the enrichment ratio was not above 0.25.
In the case of PWCA it was 0.76; in that of KSPI, not above 0.25.
For NTIH the value was not above 0.25; for WHWN, not above 0.25; for NMFF, not above 0.25.
Turning to ADFS, the enrichment ratio was not above 0.25.
For PHPE the value was not above 0.25; for FWTK, not above 0.25; for PDWL, not above 0.25.
Turning to KCKF, the enrichment ratio is not above 0.25.
Take PKAY: the enrichment ratio is not above 0.25.
As to ASWY, the enrichment ratio was not above 0.25.
As for ERLL, the enrichment ratio is not above 0.25.
As to KTAF, the enrichment ratio was not above 0.25.
As to QCDG, the enrichment ratio is not above 0.25.
As to INQT, the enrichment ratio was not above 0.25.
IFNE: the enrichment ratio was not above 0.25.
On to PEYA, for which the enrichment ratio was not above 0.25.
For the variant LPSE, the enrichment ratio was not above 0.25.
MEPA: the enrichment ratio is not above 0.25.
As to ALLW, the enrichment ratio is not above 0.25.
Take GRFK: the enrichment ratio is not above 0.25.
In the case of IFSM it was not above 0.25; in that of FEWT, not above 0.25.
For YERL the value was not above 0.25; for RYLE, not above 0.25.
In the case of KPSY it was not above 0.25; in that of QTAW, not above 0.25.
In the case of PYQI, the enrichment ratio was not above 0.25.
Regarding GRKF, the enrichment ratio is not above 0.25.
In the case of SMNN it was not above 0.25.
For FVTA the value was not above 0.25; for DAPM, not above 0.25; for HYYV, not above 0.25.
For QSQK the value was not above 0.25.
For GHIY, the enrichment ratio was not above 0.25.
On to FSTV, for which the enrichment ratio was 2.68.
On to QPLY, for which the enrichment ratio is not above 0.25.
With EFVV, the enrichment ratio is not above 0.25.
As for IWVE, the enrichment ratio was not above 0.25.
For MPFQ the value was not above 0.25; for KRCK, not above 0.25.
For TWMI the value was 0.253; for VDDP, not above 0.25; for HGFA, not above 0.25.
For MGIK the value was not above 0.25.
For RNAL, the enrichment ratio was not above 0.25.
As for NDLF, the enrichment ratio was not above 0.25.
In the case of MDAG, the enrichment ratio is not above 0.25.
For DNVQ the value was not above 0.25; for WYIF, not above 0.25; for WDIN, not above 0.25.
In the case of VSYI it was 0.294; in that of VCMR, not above 0.25.
In the case of INKV it was 1.45.
Take HIFK: the enrichment ratio is not above 0.25.
In the case of TVIM it was not above 0.25; in that of RIWM, not above 0.25.
In the case of VPAM it was not above 0.25; in that of HTSH, not above 0.25; in that of RPHW, not above 0.25.
For SLAH the value was 6.33.
Regarding MNSK, the enrichment ratio was not above 0.25.
EFND: the enrichment ratio was not above 0.25.
In the case of RARY it was not above 0.25; in that of NVCH, not above 0.25.
With FWPK, the enrichment ratio was not above 0.25.
For the variant TLMR, the enrichment ratio was not above 0.25.
In the case of WIMM it was not above 0.25; in that of QFCC, not above 0.25.
Regarding DRIA, the enrichment ratio was not above 0.25.
In the case of VVDW it was not above 0.25; in that of SEMD, 1.79.
Consider EMRQ, for which the enrichment ratio was not above 0.25.
For NHQC the value was not above 0.25; for QPWV, not above 0.25; for GWIG, not above 0.25.
Consider PGWS, for which the enrichment ratio was not above 0.25.
For the variant SFDA, the enrichment ratio is not above 0.25.
In the case of EFHY it was not above 0.25; in that of RMWC, not above 0.25; in that of IVWA, not above 0.25.
For VEHT the value was not above 0.25.
In the case of FNEW it was not above 0.25; in that of HMKD, not above 0.25.
For the variant VFPN, the enrichment ratio was not above 0.25.
For LEWA the value was not above 0.25.
In the case of NLFN it was not above 0.25; in that of SYAG, not above 0.25; in that of ACIW, not above 0.25.
In the case of YCSS, the enrichment ratio came out at 0.604.
For ANIC the value was 3.74; for LQAI, not above 0.25; for NALW, not above 0.25.
With FKSN, the enrichment ratio worked out at 0.534.
Turning to RQDY, the enrichment ratio is not above 0.25.
On to LPLC, for which the enrichment ratio was not above 0.25.
On to VILK, for which the enrichment ratio is not above 0.25.
For the variant NATA, the enrichment ratio was not above 0.25.
For NGKC the value was not above 0.25.
In the case of AVSN it was 10.5; in that of EGRK, not above 0.25; in that of DCLN, not above 0.25.
In the case of EQIF it was not above 0.25; in that of ELSE, not above 0.25; in that of QNNY, not above 0.25.
Consider FFRA, for which the enrichment ratio was not above 0.25.
Turning to TDYA, the enrichment ratio was not above 0.25.
In the case of LFAN, the enrichment ratio was not above 0.25.
RRWG: the enrichment ratio is not above 0.25.
Consider MSGG, for which the enrichment ratio was not above 0.25.
As for HYDR, the enrichment ratio was not above 0.25.
For DRPE the value was not above 0.25.
In the case of HRMQ it was not above 0.25.
Turning to NDGF, the enrichment ratio is not above 0.25.
For VTFW, the enrichment ratio was not above 0.25.
In the case of ITHQ, the enrichment ratio is not above 0.25.
Consider DKIP, for which the enrichment ratio was not above 0.25.
In the case of WQRM it was not above 0.25; in that of KCRT, not above 0.25; in that of RFKE, not above 0.25.
In the case of HYRY it was not above 0.25; in that of GALA, 2.12; in that of PQVN, not above 0.25.
On to VRQY, for which the enrichment ratio is not above 0.25.
In the case of DFMY it was not above 0.25; in that of TNCW, not above 0.25.
In the case of HLEP it was not above 0.25.
For YYHL the value was not above 0.25; for RKIT, not above 0.25.
Regarding YAMF, the enrichment ratio is not above 0.25.
Regarding VDPV, the enrichment ratio was not above 0.25.
In the case of WGKP it was not above 0.25; in that of GPVA, not above 0.25.
In the case of YWMQ it was not above 0.25.
For HDMK the value was not above 0.25.
For WYSE, the enrichment ratio is not above 0.25.
For LWMR the value was not above 0.25.
In the case of NHYV it was not above 0.25; in that of HIRR, not above 0.25.
In the case of PKKP it was not above 0.25; in that of LFFP, not above 0.25.
Take DQMI: the enrichment ratio is not above 0.25.
For LYSF the value was not above 0.25; for LQRF, not above 0.25; for YSPS, not above 0.25.
With PEAD, the enrichment ratio is not above 0.25.
Consider LWMQ, for which the enrichment ratio is not above 0.25.
In the case of LGAN it was not above 0.25; in that of GWMN, not above 0.25.
In the case of NNMI it was not above 0.25; in that of DSTP, not above 0.25.
In the case of LVPV it was not above 0.25.
For WFDW, the enrichment ratio is not above 0.25.
In the case of MNCC it was 1.16; in that of KTNN, not above 0.25; in that of EQSW, not above 0.25.
In the case of KSCL it was not above 0.25; in that of REHK, not above 0.25; in that of KAQK, not above 0.25.
With NTDY, the enrichment ratio was not above 0.25.
In the case of RTIL it was not above 0.25; in that of QFHF, not above 0.25.
In the case of WPGK it was not above 0.25; in that of QDCR, not above 0.25; in that of KPKS, not above 0.25.

Source of the values: a collection of fitness landscapes (doi:10.1126/science.1257360).
